# Article PMC4336329 (PLoS ONE, 2015)
# Among all 310,000 compounds or so, about 14,000 (4.5%) showed an effect of 50% or more. The effect is printed as a negative number. The list shows a part of the results.
# Molecular target: human ether-à-go-go-related gene (hERG) potassium channel (human, UniProt Q12809)
# Test: primary screen, population patch clamp on CHO cells stably expressing hERG
# 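Note: peak tail current of the secondary pulse compared with the same well before compound.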
# Chain of human ether-à-go-go-related gene (hERG) potassium channel (Q12809 whole entry, looked up): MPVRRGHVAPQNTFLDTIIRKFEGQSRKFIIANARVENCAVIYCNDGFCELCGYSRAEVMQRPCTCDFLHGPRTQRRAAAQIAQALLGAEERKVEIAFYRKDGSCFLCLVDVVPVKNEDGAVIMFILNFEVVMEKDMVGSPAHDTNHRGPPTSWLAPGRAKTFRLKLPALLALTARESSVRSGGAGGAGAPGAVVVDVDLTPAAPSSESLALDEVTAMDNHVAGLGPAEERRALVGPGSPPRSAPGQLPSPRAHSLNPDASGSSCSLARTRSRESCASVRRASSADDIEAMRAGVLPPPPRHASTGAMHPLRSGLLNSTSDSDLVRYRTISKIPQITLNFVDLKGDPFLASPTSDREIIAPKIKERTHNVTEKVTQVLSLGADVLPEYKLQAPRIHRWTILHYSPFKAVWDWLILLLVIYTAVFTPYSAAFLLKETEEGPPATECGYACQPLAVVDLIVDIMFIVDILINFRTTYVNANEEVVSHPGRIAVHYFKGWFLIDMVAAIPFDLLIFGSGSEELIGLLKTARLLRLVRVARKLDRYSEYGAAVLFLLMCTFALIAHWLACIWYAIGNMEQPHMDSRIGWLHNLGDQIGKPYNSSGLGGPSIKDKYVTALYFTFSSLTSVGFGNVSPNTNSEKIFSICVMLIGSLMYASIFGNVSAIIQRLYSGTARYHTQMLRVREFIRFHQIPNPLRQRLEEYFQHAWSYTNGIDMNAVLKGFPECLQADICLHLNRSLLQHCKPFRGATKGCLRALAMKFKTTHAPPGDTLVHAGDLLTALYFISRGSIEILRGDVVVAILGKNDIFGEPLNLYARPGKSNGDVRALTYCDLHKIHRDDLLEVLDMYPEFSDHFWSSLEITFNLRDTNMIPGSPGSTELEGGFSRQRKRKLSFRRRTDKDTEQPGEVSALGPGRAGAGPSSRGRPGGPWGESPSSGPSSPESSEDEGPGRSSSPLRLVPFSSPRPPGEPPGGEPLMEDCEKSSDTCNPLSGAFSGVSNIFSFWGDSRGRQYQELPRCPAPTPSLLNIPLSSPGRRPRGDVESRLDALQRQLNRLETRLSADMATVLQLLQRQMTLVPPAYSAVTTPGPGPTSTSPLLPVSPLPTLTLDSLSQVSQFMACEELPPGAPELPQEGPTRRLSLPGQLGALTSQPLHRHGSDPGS
row,Compound,"hERG current change (%, negative = inhibition) at 10uM [%]"
1,CC(=O)Nc1ccc(S(=O)(=O)N2CCN(c3ccc([N+](=O)[O-])c(NCCN4CCOCC4)c3)CC2)cc1,-20.1
2,O=C(Cc1ccccc1)Nc1nccs1,-3.43
3,Cc1ccc(Nc2cc(=O)oc3ccccc23)c(C)c1,-3.54
4,CCOc1ccc(NC(=O)CC2C(=O)N(c3ccc(OC)cc3)C(=O)N2Cc2ccc(OC)cc2)cc1 (stereo not shown),-8.72
5,CCOc1ccc(Oc2ccc(Cl)cc2NC(=O)C2=COCCO2)cc1,-13.1
6,N#Cc1ccccc1OCC(=O)N(Cc1nnc(-c2ccccc2Cl)o1)C1CC1,-48.7
7,Cc1cc(S(=O)(=O)NC2CCCC2)ccc1F,-4.33
8,CCCCOCCCNC(=O)N[C@H](C(=O)OC)C(C)CC (stereo partly shown),0.929
9,COC(=O)C(Cc1ccccc1)NC(=O)CCC(=O)NC(C)CCc1ccccc1 (stereo not shown),-3.62
10,Cc1cc(C)c2cc(CN(Cc3ccco3)C(=O)NCc3ccccc3)c(=O)[nH]c2c1,-12.4
11,CC(=O)Nc1ccc(NC(=O)c2ccc(N(Cc3ccccc3C)S(C)(=O)=O)cc2)cc1,-7.68
12,CC(C(=O)Nc1sc2c(c1C(=O)NCc1ccco1)CCCC2)N1C(=O)c2ccccc2C1=O (stereo not shown),9.84
13,CC(NC(=S)Nc1ccc(OC(F)F)cc1)c1ccc(F)cc1 (stereo not shown),-27.3
14,CN(CC(=O)Nc1ccc(N2CCOCC2)cc1)C(=O)COc1ccccc1F,-5.44
15,CCn1c2ccccc2c2nnc(SCC(=O)c3c(N)n(C)c(=O)n(C)c3=O)nc21,16.2
16,CCO[C@@H]1OC(C(=O)NCc2nc3ccccc3[nH]2)=C[C@H](C(C)(C)C)[C@H]1CCCO,-26
17,Cc1ccc(NC2c3ccccc3C(=O)N2CCN2CCOCC2)cc1 (stereo not shown),-12.9
18,O=C(c1cccnc1)N(Cc1ccccc1)C1(C(=O)Nc2ccccc2)CCCCC1,-20.6
19,C=CCn1c(CCNC(=O)c2cccs2)nnc1SCC(=O)Nc1cccc(Cl)c1C,-57.6
20,Cc1cc(Br)ccc1NC(=S)Nc1cccc([N+](=O)[O-])c1,-8.01
21,Cc1cc(C)c2sc(NC(=O)CN3C(=O)CCC3=O)nc2c1,-28.1
22,CC(C)C[C@@]12C(=O)N(c3cccc(F)c3)C(=O)N1[C@H](c1ccc(F)cc1)[C@@H]1C(=O)N(C3CCCCC3)C(=O)[C@@H]12,-15.1

row,Compound,"hERG current change (%, negative = inhibition) at 10uM [%]"
1,COc1cc2c(cc1OC)CN(C(=O)COc1ccc(C)c(C)c1)CC2,-11.9
2,CCC1Oc2ccc(C)cc2N(CC(=O)NCC2COc3ccccc3O2)C1=O (stereo not shown),-31.3
3,CC(C)(C)c1ccc(C(=O)NCC(=O)N2CCCCCC2)cc1,1.16
4,COc1ccc(CC(=O)NCc2ccccc2Cl)cc1S(=O)(=O)N1CCOCC1,-14.8
5,CN(C)S(=O)(=O)c1cccc(C(=O)NCc2cccs2)c1,-14.4
6,N#Cc1nc(COc2ccccc2)oc1NCCN1CCOCC1,-11.3
7,COC(=O)c1ccccc1NC(=O)c1cnn2c(C)cc(C)nc12,-18
8,O=C(CCc1ccccc1)OCCOC(=O)CCc1ccccc1,22.1
9,CCN1CCN(C(c2cccs2)C(C)NC(=O)c2ccco2)CC1 (stereo not shown),10.6
10,Fc1cc(F)c2nc(N3CCCCC3)sc2c1,4.43
11,Br.Cc1csc(=Nc2ccccc2)n1Cc1ccco1,13.8
12,CN(C1CCCC1)C1CCN(C(=O)CNC(=O)/C=C/c2cccc(C(F)(F)F)c2)CC1,-62.6
13,O=C(C1CCC(CNc2nc(=S)[nH]c3ccccc23)CC1)N1CCN(c2ccccn2)CC1 (stereo not shown),11.6
14,CCc1ccc(-c2cc(C)no2)cc1S(=O)(=O)N1CCN(c2cc(C)ccc2C)CC1,-22
15,O=C(Nc1nc(-c2ccccn2)cs1)c1ccc2c(c1)OCCO2,14.9
16,Nc1nc(-c2ccccc2)[nH]c(=O)c1N=O,13.5
17,CC(=O)c1ccc(NC(=O)C(C)N(C)CC(=O)Nc2cccc(F)c2)cc1 (stereo not shown),-17.3
18,Cc1cc(C(C)(C)C)oc1C(=O)N(CC(=O)NC1CCCC1)c1ccc(F)cc1,-0.604
19,CC(=O)c1cccc(CN2CCC(n3nccc3NC(=O)CCc3ccccc3)CC2)c1,-25.1
20,CCOC(=O)CSc1nc2ccccc2n1C(=O)OCC,-4.27
21,Cc1ccc(CN2CCC(n3nccc3NC(=O)CCOc3ccccc3)CC2)cc1C,-48.2
22,CCOC(=O)c1nnn(-c2ccc([N+](=O)[O-])cc2)c1C,8.05

row,Compound,"hERG current change (%, negative = inhibition) at 10uM [%]"
1,O=C(Cn1cnc2ccc(Br)cc2c1=O)c1cccs1,9.37
2,CCN(CC(=O)Nc1sc2c(c1C#N)CCCC2)CC(=O)NC1CCS(=O)(=O)C1 (stereo not shown),-24.4
3,COc1ccc(/C=N/n2nnnc2N)c(OC)c1,1.2
4,Cc1ccc(-c2nnc(NCc3ccccc3)c3ccccc23)cc1,-0.0187
5,CCCCOC(=O)C(C)Nc1n[nH]c(=S)[nH]c1=O (stereo not shown),13.1
6,Cn1c(C(=O)NCC2CCCO2)cc2c(=O)n(C)c3ccccc3c21 (stereo not shown),1.32
7,CCOC(=O)c1cnc2ccc(Cl)cc2c1NCCN(C)C,-22.8
8,O=C1NC2(CCCC2)N=C1c1ccc(F)cc1,-8.42
9,Cc1ccc2nc(N3C(=O)C(O)=C(C(=O)c4ccc(C)o4)C3c3ccc(O)cc3)sc2c1 (stereo not shown),15.8
10,Cc1noc2ncnc(N3CCCC3)c12,5.93
11,O=C(OCc1nnc(-c2ccccc2)o1)c1cccc(-n2cnnn2)c1,7.77
12,CCSc1nc2[nH]ncc2c(=O)[nH]1,20.5
13,CCOc1ccc(CCNC(=O)COC(=O)/C=C/c2ccccc2OC)cc1OCC,-6.23
14,O=C(Cn1ccc2ccccc2c1=O)NCCC(=O)Nc1ccc2c(c1)OCCO2,-0.814
15,NC(=O)Cc1nc(-c2ccc(Br)cc2)cs1,4.93
16,CCNC(=O)c1ccc(NS(=O)(=O)c2ccccc2)cc1,1.97
17,Cc1ccc(CNC(=O)Nc2ccccc2)n1C,12.3
18,O=C(Nc1ccc2oc(-c3cccc(F)c3)nc2c1)c1ccccc1F,4.1
19,CC(=O)N/C(=C/c1ccc(OC(F)F)cc1)C(=O)O,3.4
20,CC(CC(=O)NC1CCCCC1)S(=O)(=O)c1ccc2c(c1)CCN2C(=O)C1CC1 (stereo not shown),28.2
21,CC#CC#Cc1cccc(=O)o1,13.5
22,CCN1CCN(c2ccc(NC(=O)c3ccc4c(c3)[nH]c(=O)n4Cc3ccc(OC)cc3)cc2)CC1,1.62

row,Compound,"hERG current change (%, negative = inhibition) at 10uM [%]"
1,Cc1nc2ccccn2c1C(=O)NNS(=O)(=O)c1ccc(Cl)cc1,0.311
2,COCCN(C(=O)Cc1cccs1)C(C(=O)NCc1ccc(OC)cc1)c1ccc(C)cc1 (stereo not shown),-14.8
3,O=C1CSC(c2c(F)cccc2Cl)N1c1cccc(F)c1 (stereo not shown),-27
4,Cc1ccc(NC(=O)CCC(=O)NNC(=O)c2ccccc2[N+](=O)[O-])c(C)c1,16.3
5,Cc1ccc(NC(=S)Nc2ccc(F)cc2)c(C)c1,19.6
6,Cc1ccc(C(=O)OCC(=O)c2ccc(Cl)s2)s1,12.4
7,COCc1cc(=O)[nH]c(N2CCN(Cc3ccc4c(c3)OCO4)CC2)n1,1.19
8,CN(C)[C@@H](CO)c1nnc([C@H](Cc2ccc(O)cc2)NC(=O)C2CCNCC2)o1.Cl,3.51
9,COC(=O)c1ccccc1NC(=O)c1ccc(-c2ccc(Br)cc2)o1,27.4
10,Cc1cc(C(=O)N2CCC3(CC2)OCCO3)no1,18
11,CC(NC(=O)Cc1ccccc1)c1cc2c(cc1Br)OCCCO2 (stereo not shown),1.03
12,O=C(/C=C/c1ccco1)NCC(=O)N/N=C/c1ccc(Cl)cc1,-13.1
13,COc1ccc(-c2nc(-c3cccc([N+](=O)[O-])c3O)cc(=O)o2)cc1OC,-0.944
14,S=C(NCc1cccs1)Nc1cccc(Cl)c1Cl,-5.86
15,Cc1ccc(C)c(NC(=O)Cn2nc(C(F)(F)F)cc2C2CC2)c1,21.6
16,COc1ccc(-c2cc3ccccc3n2CC(O)CN2CCOCC2)cc1 (stereo not shown),-13.5
17,Cc1cc(C(=O)NNC(=O)c2ccc(Cl)cc2Cl)c(C)o1,-1.01
18,COC(=O)C1=C(c2cccc(OC)c2OC)C[C@@H]2CC[C@H]1N2C(=O)NCc1ccc(F)cc1,0.311
19,CCSc1nnc(NC(=O)C2CCCCC2)s1,3.64
20,COc1ccc(-c2cc(C(=O)N3CCCCC3)no2)cc1OC,5.47
21,Cc1cccc(NC(=O)/C(C#N)=C\c2ccc(C(=O)O)cc2)c1,13.6
22,COc1ccc(C(=O)Nc2cccc(/C=C(\CCC(=O)O)c3nc4ccccc4s3)c2)cc1,8.59
